Measurements as given in the supplement of paper PMC11876631.
Changes are numbered by the printed parent chain. Names and notes keep the numbering of the source. Laboratory Escherichia coli strains with one amino-acid change in an essential protein, pooled on minimal glucose agar with carbenicillin or gentamicin at twice the control MIC (plus kanamycin and chloramphenicol for the plasmids), 48 h. Fold change of barcode share against drug-free plates; higher = less susceptible. Active = above 20 in both replicates (the paper's putatively resistant). '<' = one read or none on drug, '>' = one read or none on a drug-free plate. Shares are relative, so most strains fall below 1 when a few take over. Listed are strains with at least 15 reads on both drug-free plates, and hits; most hits rest on fewer reference reads. Replicate rank correlation about 0.5. Edits are read from barcodes.

B1: ilvA M70P (protein)
chain: MADSQPLSGAPEGAEYLRAVLRAPVYEAAQVTPLQKMEKLSSRLDNVILVKREDRQPVHSFKLRGAYAMPAGLTEEQKAHGVITASAGNHAQGVAFSSARLGVKALIVMPTATADIKVDAVRGFGGEVLLHGANFDEAKAKAIELSQQQGFTWVPPFDHPMVIAGQGTLALELLQQDAHLDRVFVPVGGGGLAAGVAVLIKQLMPQIKVIAVEAEDSACLKAALDAGHPVDLPRVGLFAEGVAVKRIGDETFRLCQEYLDDIITVDSDAICAAMKDLFEDVRAVAEPSGALALAGMKKYIALHNIRGERLAHILSGANVNFHGLRYVSERCELGEQREALLAVTIPEEKGSFLKFCQLLGGRSVTEFNYRFADAKNACIFVGVRLSRGLEERKEILQMLNDGGYSVVDLSDDEMAKLHVRYMVGGRPSHPLQERLYSFEFPESPGALLRFLNTLGTYWNISLFHYRSHGTDYGRVLAAFELGDHEPDFETRLNELGYDCHDETNNPAFRFFLAG
B2: hisS V89A (protein)
chain: MAKNIQAIRGMNDYLPGETAIWQRIEGTLKNVLGSYGYSEIRLPIVEQTPLFKRAIGEVTDVVEKEMYTFEDRNGDSLTLRPEGTAGCARAGIEHGLLYNQEQRLWYIGPMFRHERPQKGRYRQFHQLGCEVFGLQGPDIDAELIMLTARWWRALGISEHVTLELNSIGSLEARANYRDALVAFLEQHKEKLDEDCKRRMYTNPLRVLDSKNPEVQALLNDAPALGDYLDEESREHFAGLCKLLESAGIAYTVNQRLVRGLDYYNRTVFEWVTNSLGSQGTVCAGGRYDGLVEQLGGRATPAVGFAMGLERLVLLVQAVNPEFKADPVVDIYLVASGADTQSAAMALAERLRDELPGVKLMTNHGGGNFKKQFARADKWGARVAVVLGESEVANGTAVVKDLRSGEQTAVAQDSVAAHLRTLLG
B3: hisS V89D (protein)
chain: B2 chain with A89D
B4: hisS F133D (protein)
chain: B2 chain with A89V, F133D
B5: infB I440W (protein)
chain: MTDVTIKTLAAERQTSVERLVQQFADAGIRKSADDSVSAQEKQTLIDHLNQKNSGPDKLTLQRKTRSTLNIPGTGGKSKSVQIEVRKKRTFVKRDPQEAERLAAEEQAQREAEEQARREAEESAKREAQQKAEREAAEQAKREAAEQAKREAAEKDKVSNQQDDMTKNAQAEKARREQEAAELKRKAEEEARRKLEEEARRVAEEARRMAEENKWTDNAEPTEDSSDYHVTTSQHARQAEDESDREVEGGRGRGRNAKAARPKKGNKHAESKADREEARAAVRGGKGGKRKGSSLQQGFQKPAQAVNRDVVIGETITVGELANKMAVKGSQVIKAMMKLGAMATINQVIDQETAQLVAEEMGHKVILRRENELEEAVMSDRDTGAAAEPRAPVVTIMGHVDHGKTSLLDYIRSTKVASGEAGGITQHIGAYHVETENGMWTFLDTPGHAAFTSMRARGAQATDIVVLVVAADDGVMPQTIEAIQHAKAAQVPVVVAVNKIDKPEADPDRVKNELSQYGILPEEWGGESQFVHVSAKAGTGIDELLDAILLQAEVLELKAVRKGMASGAVIESFLDKGRGPVATVLVREGTLHKGDIVLCGFEYGRVRAMRNELGQEVLEAGPSIPVEILGLSGVPAAGDEVTVVRDEKKAREVALYRQGKFREVKLARQQKSKLENMFANMTEGEVHEVNIVLKADVQGSVEAISDSLLKLSTDEVKVKIIGSGVGGITETDATLAAASNAILVGFNVRADASARKVIEAESLDLRYYSVIYNLIDEVKAAMSGMLSPELKQQIIGLAEVRDVFKSPKFGAIAGCMVTEGVVKRHNPIRVLRDNVVIYEGELESLRRFKDDVNEVRNGMECGIGVKNYNDVRTGDVIEVFEIIEIQRTIA

What follows are proteins tested against Escherichia coli (laboratory strain) (assay: barcode share on antibiotic plates over drug-free plates; higher = less susceptible). Settings: antibiotic: gentamicin; 2× MIC (MIC 0.45 µg/mL).
Procedure: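 A pool of E. coli strains, each edited to carry one amino-acid change in an essential protein, was grown for 48 h on minimal glucose agar with or without antibiotic; strain barcodes were sequenced; mean of two replicates.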
With B1 the “fold change of barcode share” value was less than 0.013. With B2 the “fold change of barcode share” value was less than 0.02. In the case of B3, the “fold change of barcode share” value is reported as less than 0.0203. B4 was tested, and the “fold change of barcode share” value was less than 0.0201. B5 was tested, and the “fold change of barcode share” value was less than 0.0149.
